This is one part of the list.

The source of these data is the supplement of paper PMC11417369.

The test system of the experiment is PF3D7_0420300 AP2 domain 1 (GST-tagged). In words: gcPBM binding intensity (ln(normalized median fluorescence intensity)); higher = stronger DNA binding. An outline of the steps:
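In this array assay, P. falciparum DNA-binding domains with a GST tag, expressed in E. coli, were applied for 1 h to primer-extended double-stranded 36-bp intergenic genomic probes and negative controls on an Agilent 4 × 180k array. Bound protein was visualised with Alexa488 anti-GST antibody at 488 nm. Binding intensity is the highest Masliner-normalised natural-log median intensity across replicate spots of either probe orientation.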
On to “AAGAAGAAATGCTTTGCATGCAAATTTTATGCCAAC [TGCATGCA_site721]”, for which the “gcPBM binding intensity (ln)” value is 9.21.

As for “AACAATTGGAATAACGCATGCATTTATAATATAGAA [TGCATGCA_site298]”, the “gcPBM binding intensity (ln)” value worked out at 9.25.

In the case of “TGAATATTCCTATGCACACAAATTAAAATACATAAT [CACACA_site4403]”, the “gcPBM binding intensity (ln)” value was 9.5.

As to “ACAAATTTATACTTAAAACACACGTAATCATTTATA [CACACA_site1636]”, the “gcPBM binding intensity (ln)” value stood at 9.23.

Consider “TAAAATAATTTATGCATACACACATATATATATATA [CACACA_site4021]”, for which the “gcPBM binding intensity (ln)” value turned out to be 9.46.

Regarding “TACAAAAAAAAAAAATAGATAAAATAATAATCAAAT [TGCATGCA_negctrl_site524]”, the “gcPBM binding intensity (ln)” value is 9.41.

Regarding “ATATATTGAACATATTGTACATTTTGTTAATATTTT [XGTACX_site7622]”, the “gcPBM binding intensity (ln)” value was determined as 9.21.

On to “AAATATATAAAATATACACACAGTAATATATATATA [CACACA_site1385]”, for which the “gcPBM binding intensity (ln)” value came to 9.54.

As for “TCTTGTTTTCAAATATGTACATAGAATAGACATTTT [XGTACX_site684]”, the “gcPBM binding intensity (ln)” value turned out to be 8.91.

Consider “TATATATAAATATTCAGTACATAGTATTATTAAGTA [XGTACX_site1980]”, for which the “gcPBM binding intensity (ln)” value was found to be 9.17.

“ATAAAATGAACAAACACACACACATATATATATATA [CACACA_site2402]”: the “gcPBM binding intensity (ln)” value turned out to be 9.89.

On to “AAGTTTTATTTAAATTGTACTAAAATTTTTATATTA [XGTACX_site7065]”, for which the “gcPBM binding intensity (ln)” value came out at 9.05.

Take “TATTTAAGAATATGAAGTACATATATTATTTAAAAA [XGTACX_site7897]”: the “gcPBM binding intensity (ln)” value was determined as 9.

As for “CATATAAATAAATACACACACACACGCCTTATAATT [CACACA_site7830]”, the “gcPBM binding intensity (ln)” value amounted to 10.2.

For the sequence “TATATAGGTATCATTACACACATGTATACTTATTTG [CACACA_site7864]”, the “gcPBM binding intensity (ln)” value came out at 9.61.

As for “CCTAAAAAAAAGAAATGATATACATATGTATATATA [GTGCAC_negctrl_site100]”, the “gcPBM binding intensity (ln)” value was 9.14.

Turning to “TTTTTCTTTCTCTATTGTACACATGGAAACACATAA [XGTACX_site4601]”, the “gcPBM binding intensity (ln)” value was 9.23.

On to “TACAATTTTTTAAATGCACACAAAAGGAATAAATAA [CACACA_site8075]”, for which the “gcPBM binding intensity (ln)” value came to 9.49.

Regarding “TAATATATGTATTGCACACCTATAACCATTATTTCT [CACACA_site1498]”, the “gcPBM binding intensity (ln)” value came to 9.51.

Consider “AAAAGCAAGTTCCAGGGTACATATATATGAAAAAAC [XGTACX_site2408]”, for which the “gcPBM binding intensity (ln)” value stood at 9.58.

In the case of “AAATATATTTTACATTGTACATGAATAAACTATAAA [XGTACX_site2080]”, the “gcPBM binding intensity (ln)” value is 9.13.

Consider “AAAAATTAAATAAATTTACACACTAATAATTACATA [CACACA_site8260]”, for which the “gcPBM binding intensity (ln)” value was determined as 9.3.

As to “AAAAATATGTCCATGAAAAGGATAGGCAGGTAATCA [XGTACX_negctrl_site93]”, the “gcPBM binding intensity (ln)” value was 9.5.

As for ACGTTAAAATATTGGGTGCTAACACAATAAAAATAA, the “gcPBM binding intensity (ln)” value amounted to 9.29.

For the sequence “TATATGTTATATTGGACACACACAATAAACATTATG [CACACA_site8480]”, the “gcPBM binding intensity (ln)” value stood at 9.62.

In the case of “AAACATAAAGAAAAAAAAAATATATATTTATTTATT [GTGCAC_negctrl_site357]”, the “gcPBM binding intensity (ln)” value is 9.13.

Turning to ATATATTAACAAAAGGTGCTTTTGGCAAAGTATAAT, the “gcPBM binding intensity (ln)” value is 9.43.

Turning to “ATAAAAATGGTGTTAACACACACATATATATATATA [CACACA_site8089]”, the “gcPBM binding intensity (ln)” value amounted to 9.48.

As to “TTATTTAAATATTGATGTACTCTCCTTATTATAATA [XGTACX_site1240]”, the “gcPBM binding intensity (ln)” value is 9.26.

“GGTAATTATTTTGGTTGTACTCAAATATATAATATT [XGTACX_site291]”: the “gcPBM binding intensity (ln)” value was 9.45.

In the case of “ATGTCATAAATGTACGCACACATACATAAACATATA [CACACA_site4530]”, the “gcPBM binding intensity (ln)” value was 9.37.

As to “TTCATTTTAATTTCCAGTACACATATATATACATAT [XGTACX_site558]”, the “gcPBM binding intensity (ln)” value was found to be 9.42.

Regarding “ATTTATTTCTATAATACACACAAATATCTTAATTAA [CACACA_site7801]”, the “gcPBM binding intensity (ln)” value is 9.31.

Take “AATATAATACAATATTGTACATAATATAAATTAAAA [XGTACX_site4064]”: the “gcPBM binding intensity (ln)” value was determined as 9.21.

On to ATTATATTTATGTTGGTGCATTATACATGAAATTTA, for which the “gcPBM binding intensity (ln)” value is 9.2.

On to “TTTACAATATAAAATACACACACACTAACATATATT [CACACA_site9231]”, for which the “gcPBM binding intensity (ln)” value was determined as 9.89.

As for “TATATAAATGTTATCACACACTCACGTTTGACAAAA [CACACA_site6468]”, the “gcPBM binding intensity (ln)” value was found to be 9.33.

In the case of “ATACAATAAAATAAGTTTGAATAAAATTAAATATAT [CACACA_negctrl_site877]”, the “gcPBM binding intensity (ln)” value turned out to be 9.27.

As to “TCCTTTTTTAAAAGTTGTACATTATTGTTATTTGTT [XGTACX_site4686]”, the “gcPBM binding intensity (ln)” value was determined as 9.38.

In the case of “TTCCTCTTAATATGTGCACACTAAATTATAACCTAA [CACACA_site5751]”, the “gcPBM binding intensity (ln)” value turned out to be 9.27.

For “GAAGGAAATAATAGTAGTACAAATGGTAAGAAATAT [XGTACX_site5845]”, the “gcPBM binding intensity (ln)” value came to 9.7.

Regarding “GAGAAAGATATATACACACACATAAATATGTACATA [CACACA_site6975]”, the “gcPBM binding intensity (ln)” value worked out at 9.88.

As to “TATATAGGTAAAAAATGTACTTATATTGAATATATT [XGTACX_site4414]”, the “gcPBM binding intensity (ln)” value was found to be 9.19.

Consider “TTTCCCAAGCTTATTACACACAAGTAGAATAAGCTT [CACACA_site1561]”, for which the “gcPBM binding intensity (ln)” value was found to be 9.06.

As to “TTTACAATATTAAAATGTACATATAAAATAAATAAA [XGTACX_site8367]”, the “gcPBM binding intensity (ln)” value is 9.15.

For “AATTTGTTAATATTTTGTACACATAATATAAAAACA [XGTACX_site2224]”, the “gcPBM binding intensity (ln)” value came out at 9.2.

Take “GATATCAAATATAAATGTACAAATTATATATACATA [XGTACX_site3228]”: the “gcPBM binding intensity (ln)” value is 9.25.

Turning to “TTCTTATTTATTTTCTTCTCCTTCCTCAAATTTTTT [GTGCAC_negctrl_site592]”, the “gcPBM binding intensity (ln)” value is 9.37.

On to “TTCATATATTTTAAAGCATGCATTCATCTTATAGTT [TGCATGCA_site800]”, for which the “gcPBM binding intensity (ln)” value turned out to be 9.19.

For the sequence “TTTACGCTATAGGAGAGTACTTATAAAATCCTGTGT [XGTACX_site2364]”, the “gcPBM binding intensity (ln)” value was found to be 9.24.

Take “TATTTTTCCATTGGGGGTACATGTGTTATATTTATT [XGTACX_site5914]”: the “gcPBM binding intensity (ln)” value was 10.1.

For “TACAAAATATATATGACACACACAAAAAAAGTATAT [CACACA_site8455]”, the “gcPBM binding intensity (ln)” value worked out at 9.9.

Take “AGACGAAAATAATAAAGTACTAAAAAAAAAAAAAAA [XGTACX_site927]”: the “gcPBM binding intensity (ln)” value was found to be 8.78.

As for “ATATATATGCATATATGTACTTAAAATATAAAGGCA [XGTACX_site3256]”, the “gcPBM binding intensity (ln)” value is 9.04.

As for “ATTTTTTCTGTCTTAATTGGACCCACTGCAAATGGG [CACACA_negctrl_site1158]”, the “gcPBM binding intensity (ln)” value was 8.87.

With “ATAATACAAAAAAAAAAAAAAAATAAAATAATAAAA [GTGCAC_negctrl_site722]”, the “gcPBM binding intensity (ln)” value amounted to 9.33.

For the sequence “AAGTAATACAACACGCACATATATATATATATATAT [GTGCAC_negctrl_site89]”, the “gcPBM binding intensity (ln)” value was 9.47.
